“And” between values parts separate entries of the source, which are not always exact repeats. Identical values can stand only once. About 40 (0.2%) of roughly 16,000 compounds were called active. About 1% were inconclusive and are not listed. Calls follow the shape of the dose curve; as a rule, active = well fitted activation curve with a large enough effect; inconclusive = small, poorly fitted or top-dose-only effect, or another doubt; inactive = no such curve, though single readings can be large or run the other way. This is one part of the list.
biological target: Rap guanine nucleotide exchange factor 4 (Homo sapiens) (UniProt Q8WZA2); test: Validation qHTS for agonist of cAMP-regulated guanine nucleotide exchange factor 4 (EPAC2); settings: EPAC2 Rap1B BODIPY-GDP exchange, fluorescence; activation: active compounds read high;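 also: exchange makes BODIPY-GDP fluorescence drop when released from Rap1B; series mostly up to about 150 µM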
UniProt Q8WZA2, sequence (Q8WZA2 whole entry, looked up): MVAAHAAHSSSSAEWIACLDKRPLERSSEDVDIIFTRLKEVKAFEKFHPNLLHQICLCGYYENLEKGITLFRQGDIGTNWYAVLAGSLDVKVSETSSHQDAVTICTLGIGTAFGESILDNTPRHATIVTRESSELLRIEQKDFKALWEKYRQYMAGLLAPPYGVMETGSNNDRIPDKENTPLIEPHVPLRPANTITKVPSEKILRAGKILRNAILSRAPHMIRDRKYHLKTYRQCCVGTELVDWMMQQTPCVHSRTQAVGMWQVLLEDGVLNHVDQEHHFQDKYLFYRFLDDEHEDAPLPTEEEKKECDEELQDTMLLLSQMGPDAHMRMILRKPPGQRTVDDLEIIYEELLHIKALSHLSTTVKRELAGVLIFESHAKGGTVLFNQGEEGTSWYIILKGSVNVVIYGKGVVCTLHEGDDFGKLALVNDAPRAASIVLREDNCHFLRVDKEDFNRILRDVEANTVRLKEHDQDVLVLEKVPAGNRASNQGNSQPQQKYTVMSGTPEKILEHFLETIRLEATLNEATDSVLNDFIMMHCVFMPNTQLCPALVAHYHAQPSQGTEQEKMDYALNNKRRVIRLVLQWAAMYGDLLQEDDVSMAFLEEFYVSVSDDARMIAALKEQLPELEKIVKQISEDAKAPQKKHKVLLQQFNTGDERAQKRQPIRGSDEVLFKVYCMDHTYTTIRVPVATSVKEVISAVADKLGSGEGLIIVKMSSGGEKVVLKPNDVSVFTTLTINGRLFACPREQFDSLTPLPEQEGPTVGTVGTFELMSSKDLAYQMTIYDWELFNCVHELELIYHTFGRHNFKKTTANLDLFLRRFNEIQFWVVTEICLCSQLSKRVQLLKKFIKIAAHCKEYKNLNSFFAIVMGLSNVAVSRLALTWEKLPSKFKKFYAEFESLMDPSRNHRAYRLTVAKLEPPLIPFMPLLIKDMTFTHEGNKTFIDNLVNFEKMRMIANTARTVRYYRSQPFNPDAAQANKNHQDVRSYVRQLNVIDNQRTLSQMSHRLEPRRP
Summary of the method: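 Signal normalized against 6.5 mM cAMP as agonist control. Mix of EPAC2 (100 nM), RAP1B-BODIPY-GDP (250 nM) and GDP (50 uM) was read kinetically at 480/540 nm, every 5 min over 30 min, after 5 min room-temperature incubation with compound.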
% is scaled to controls: 0 for no effect and ±100 for the full control effect.

activation, inactive:
CC(=O)OC1CCC23CC1(C)CCC2C(C)(C)CC3OC(C)=O (stereo not given) -9.01%, COc1ccc(OC)c2c(C)ccnc12 -10.2%, O=C(NCC1(N2CCOCC2)CCCCC1)c1cnn(-c2nccc(-c3ccco3)n2)c1C1CC1 7.16%, O=c1c(CCc2ccccc2)nc2cnc(N3CCOCC3)nc2n1CCc1ccccc1 -9.04%, CC(C)(C)C1CCC(=O)N(CCSc2ccccc2)CC1 (stereo not given) -16%, CC(=O)Oc1cc(OC(C)=O)c2c(c1)OC(c1ccc(OC(C)=O)c(OC(C)=O)c1)C(OC(C)=O)C2 (stereo not given) -21.9% and -5.37%, C=CC[C@@H]1/C=C(\C)C[C@H](C)C[C@H](OC)[C@H]2O[C@@](O)(C(=O)C(=O)N3CCCC[C@H]3C(=O)O[C@H](/C(C)=C/[C@@H]3CC[C@@H](O)[C@H](OC)C3)[C@H](C)[C@@H](O)CC1=O)[C@H](C)C[C@@H]2OC -32.1%, C=C(C)C1Cc2c(ccc(C(=O)O)c2O)O1 (stereo not given) -11%, Cc1cnc(CNc2ccnc(-c3ccc(C(=O)N(C)C)cc3)n2)cn1 -2.76%, O=Nc1c(-c2c(O)[nH]c3ccccc23)[nH]c2ccccc12 -3.12% and -11.1% and -53.9%, Cc1ccc(C(=O)c2cc(O)c(O)c([N+](=O)[O-])c2)cc1 4.14%, Cc1cnc(-n2ncc(C(=O)NCC3CCCN(C)C3)c2C)nc1-c1cccs1 (stereo not given) 5.63%, COCc1c(C(C)C)nc(C(C)C)c(/C=C/[C@@H](O)C[C@@H](O)CC(=O)O)c1-c1ccc(F)cc1 -43.4%, COc1ccc(-c2nc3cc(C)ccc3cc2CN(C(=O)c2csc(C)n2)C2CC2)cc1OC 5.64%, COCCC(=O)NCC1Cc2cc(Cl)cc(-c3ccc4[nH]ccc4c3)c2O1 (stereo not given) -17.7%, CC(=O)OC1CC[C@]2(C)C(CC(OC(C)=O)[C@]3(C)C2CC[C@@]2(C)C(c4ccoc4)OC(=O)C4O[C@]432)C1(C)C (stereo not given in full) -22.7%, Cn1cccc1C(=O)N1CCC2(CC1)CCN(C(c1ccccc1)c1ccccc1)CC2 -16.9%, COc1ccc(C(=O)NCc2cccnc2)cc1C(=O)NCc1cccnc1 -39%, CO[C@H]1[C@H](NC(=O)c2ccsc2)c2ccccc2C12CCN(Cc1cc(Cl)ccc1O)CC2 -16.6%, CC=CC1=C(C(=O)O)N2C(=O)[C@H](NC(=O)[C@H](N)c3ccc(O)cc3)[C@@H]2SC1 -0.256%, CS(=O)(=O)N1CCC2(CCCN(C(=O)Nc3ccccc3)C2)CC1 -3.26%, COc1ccccc1-c1nc(NCCNC(C)=O)c2ccccc2n1 -22.8%, CC1(C)CC[C@]2(C(=O)O)CC[C@@]3(C)C(=CCC4[C@@]5(C)CCC(O)[C@@](C)(CO)C5CC[C@@]43C)C2C1 (stereo not given in full) -35%, CCOC(=O)[C@H](N)/C=C(\C)CP(=O)(O)O -14.6%, CS(=O)(=O)N1CCC2(CCN(c3cccc(-c4ccccc4)c3)CC2)CC1 7.37%, CC(=O)N[C@@H](CC(C)C)C(=O)O -4.65%, Cc1nccn1CC1CCC2C(C1=O)c1ccccc1N2C (stereo not given) 5.56%, CC[C@]1(O)C[C@@H]2CN(CCc3c([nH]c4ccccc34)[C@](C(=O)OC)(c3cc4c(cc3OC)N(C)[C@H]3[C@](O)(C(=O)OC)[C@@H](C(=O)OC)[C@@]5(CC)C=CCN6CC[C@@]43[C@@H]65)C2)C1 0.335%, C[N+]1(CC(=O)c2cccc([N+](=O)[O-])c2)CCOCC1 -6.39%, CCOC(=O)c1ccc(-c2c(-c3cc(OC)c(OC)c(OC)c3)noc2C)cc1F -9.26%, CNCCCCCCCCSc1nc(C(C)C)ccc1C(=O)c1cccs1 -15.8%, OCc1cc2c(cn1)[nH]c1ccccc12 2.17%, CN1CCCC1CCOC(C)(c1ccccc1)c1ccc(Cl)cc1 (stereo not given) -16.9%, O=C(Nc1ccccc1)O[C@@H]1C[C@H]2CCCC(=O)N3CC[C@@H](C1)[C@@H]23 -8.09%, COC[C@H](c1ccc(C(F)(F)F)cc1)N1CCN(C2(C)CCN(C(=O)c3c(C)ncnc3C)CC2)C[C@H]1C -6.13%, O=S(=O)(c1ccccc1)N1CCC2(CCCN(c3cccc(-c4ccccc4)c3)C2)CC1 11.2%, CC(=O)N1CCC[C@H]1C(=O)NCC1Cc2cc(C)cc(-c3ccc(Cl)cc3)c2O1 (stereo not given in full) -1.06%, COc1ncc2nc(CCc3ccccc3)c(=O)n(C)c2n1 2.44%, COc1cccc(-c2cc3c(c(OC)c2)OCCN(S(=O)(=O)c2ccccc2OC(F)(F)F)C3)n1 -15.3%, C=CCN1CCc2cc(O)c(O)cc2[C@H](c2ccccc2)C1 -0.733%, COc1c2ccoc2nc2c(OC)c(OCC(O)C(C)(C)O)ccc12 (stereo not given) -12.1% and 4.47%, COc1cccc(Cn2c(=O)c(CCc3ccccc3)nc3cnc(N4CCNCC4)nc32)c1 9.21%, C[C@H]1C[C@H]2[C@@H]3CCC4=CC(=O)C=C[C@]4(C)[C@@H]3C(=O)C[C@]2(C)[C@@]1(O)C(=O)CO 3.67%, COc1ccc(CNc2ncncc2-c2ccc3c(c2)OCO3)c(OC)c1 6.24%, CNc1ccnc(-c2cccc(NS(C)(=O)=O)c2)n1 1.54%, O=c1[nH]cnc2n[nH]nc12 -9.8%, CCCc1ccc(C(=O)O)cc1 10.8%, C=C1C[C@H](OC(=O)C(C)(O)CCl)C2C(=C)C(=O)O[C@@H]2C2C1C[C@H](O)[C@]2(O)CCl (stereo not given in full) -18.1%, COc1ccc(CN2CCCC(n3cc(C(=O)N4CCCCC4)nn3)C2)c(OC)c1 (stereo not given) -20.1%, CSc1nc(N)c2ncn([C@@H]3O[C@H](COP(=O)(O)OP(=O)(O)OP(=O)(O)O)[C@@H](O)[C@H]3O)c2n1 15.6% and -23.4%

— PubChem BioAssay AID1645887 (National Center for Advancing Translational Sciences (NCATS), 2021)
